According to the supplement of paper PMC9446081:
Among all 39,000 compounds or so, about 220 (0.56%) showed activity. The list shows a part of the results.

test system: Escherichia coli K-12 BW25113; test: relative growth (OD600 normalised to plate interquartile mean) (fraction); higher = less growth inhibition, active = 0.2 or less; settings: 50 µM; LB; incubation time: overnight (16-24 h)
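Note: static incubation at 37 °C against the wild-type strain, values averaged over two biological replicates.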

Row | Structure (SMILES) | relative growth
1 | C[C@H](CO)N1C[C@H](C)[C@H](CN(C)S(=O)(=O)c2cccc(F)c2)Oc2ncc(C#Cc3cccc(F)c3)cc2C1=O | inactive: 1.03
2 | COc1ccc(CN(C)C[C@@H]2OCCCC[C@@H](C)Oc3ccc(NS(=O)(=O)c4ccc(OC)cc4)cc3C(=O)N([C@@H](C)CO)C[C@H]2C)cc1 | inactive: 1.01
3 | C[C@H]1CN([C@@H](C)CO)C(=O)Cc2cc(NC(=O)c3ccncc3)ccc2O[C@@H]1CN(C)Cc1ccncc1 | inactive: 1.01
4 | C[C@@H]1CN([C@@H](C)CO)S(=O)(=O)c2ccc(C#CC3CC3)cc2O[C@@H]1CN(C)Cc1ccccc1F | inactive: 1.01
5 | CC(C)NC(=O)N(C)C[C@H]1Oc2ccc(NC(=O)CCC(F)(F)F)cc2C(=O)N([C@H](C)CO)C[C@H]1C | inactive: 0.973
6 | C[C@H]1CN([C@@H](C)CO)C(=O)c2cc(NC(=O)Cn3cnnn3)ccc2O[C@H]1CN(C)Cc1ccncc1 | inactive: 1
7 | Cn1nc(O)c(=O)[nH]c1=S | inactive: 0.992
8 | COCCOC(=O)N1C(=O)[C@@]2(c3cc(C#CCCO)ccc31)[C@H](C(=O)Nc1nc3ccccc3s1)[C@H]1C(=O)O[C@H](c3ccccc3)[C@H](c3ccccc3)N1[C@@H]2c1ccc(O)cc1 | inactive: 1.02
9 | Cc1noc(C)c1S(=O)(=O)Nc1ccc2c(c1)C(=O)N([C@@H](C)CO)C[C@H](C)[C@@H](CN(C)Cc1ccc(C(=O)Nc3ccccc3N)cc1)OCCCC[C@@H](C)O2 | inactive: 0.95
10 | CC(O)CC(C)(C)O (stereo not drawn) | inactive: 0.989
11 | CC(C)NC(=O)Nc1ccc2c(c1)C(=O)N([C@H](C)CO)C[C@H](C)[C@H](CN(C)C(=O)Nc1ccccc1)OCCCC[C@@H](C)O2 | inactive: 0.995
12 | CCCNC(=O)N[C@H]1CC[C@@H](CC(=O)N2CCN(C)CC2)O[C@@H]1CO | inactive: 1.01
13 | O=C(C[C@H]1CC[C@H]2[C@@H](COC[C@@H](O)CN2S(=O)(=O)c2cccc(Cl)c2)O1)N1CCOCC1 | inactive: 1.01
14 | C[C@H]1CN([C@@H](C)CO)C(=O)c2cccc(NC(=O)C3CCOCC3)c2O[C@@H]1CN(C)Cc1ccncc1 | inactive: 1.03
15 | C[C@H](CO)N1C[C@H](C)[C@@H](CN(C)Cc2ccc(Oc3ccccc3)cc2)Oc2ccc(NC(=O)Cc3cn(C)c4ccccc34)cc2CC1=O | inactive: 1.04
16 | COc1ccc(C#Cc2cnc3c(c2)C(=O)N([C@@H](C)CO)C[C@H](C)[C@@H](CN(C)C(=O)CN(C)C)O3)cc1 | inactive: 1.08
17 | C[C@H](CO)N1C[C@H](C)[C@H](CN(C)S(=O)(=O)c2cn(C)cn2)Oc2ccc(NS(=O)(=O)c3ccccc3)cc2C1=O | inactive: 0.978
18 | C[C@H]1CN([C@@H](C)CO)C(=O)Cc2cc(NC(=O)Cc3cn(C)c4ccccc34)ccc2O[C@H]1CN(C)CC1CCCCC1 | inactive: 0.984
19 | Cc1noc(C)c1NC(=O)N(C)C[C@H]1OCCCC[C@H](C)Oc2ccc(NC(=O)CCC(F)(F)F)cc2C(=O)N([C@H](C)CO)C[C@@H]1C | inactive: 0.968
20 | CCS(=O)(=O)N1C[C@]2(CCN(CC2)C(=O)Nc2c(noc2C)C)c2c(n(c3cc(ccc23)OC)C)[C@@H]1CO | inactive: 1.01

Row | Structure (SMILES) | relative growth
21 | C[C@@H]1CN([C@H](C)CO)C(=O)c2cc(NC(=O)Nc3ccc(C(F)(F)F)cc3)ccc2O[C@H]1CN(C)C(=O)Nc1cccc2ccccc12 | inactive: 1.02
22 | C=CC[C@@H](CC(=O)NCCO)C(=O)NC[C@H](OC(=O)[C@H](CC=C)CC(=O)OC(C)(C)C)c1ccccc1 | inactive: 0.981
23 | C[C@H]1CC[C@@H]2C(C(=O)O[C@H]3[C@H]4O[C@@]4(C)[C@H]4[C@@H](O[C@H]5O[C@@H](CO)[C@@H](O)[C@@H](O)[C@@H]5O)OC=C[C@@]34O)=CO[C@H](O[C@H]3O[C@@H](CO)[C@@H](O)[C@@H](O)[C@@H]3O)[C@@H]21 | inactive: 0.986
24 | O=C(C[C@H]1C[C@H]2c3cc(NS(=O)(=O)c4ccc(F)cc4)ccc3O[C@H]2[C@@H](CO)O1)N1CCCCC1 | inactive: 1
25 | COCC(=O)N1CC(=O)N2[C@H](CO)[C@H](c3ccc(C#Cc4cccnc4)cc3)[C@H]2C1 | inactive: 1.04
26 | C[C@H]1CN([C@@H](C)CO)C(=O)c2cc(NS(=O)(=O)c3ccccc3)ccc2O[C@H]1CN(C)S(=O)(=O)c1ccc(F)cc1 | inactive: 0.989
27 | C[C@@H]1CN([C@@H](C)CO)C(=O)Cc2cc(NC(=O)Nc3ccc(C(F)(F)F)cc3)ccc2O[C@H]1CN(C)C(=O)Nc1cccc2ccccc12 | inactive: 1.03
28 | CCN1C(=O)[C@H]2[C@H](O)CS[C@H]2C1=O | inactive: 0.94
29 | C[C@@H]1CN([C@@H](C)CO)C(=O)c2cccc(NC(=O)Nc3ccc4c(c3)OCO4)c2O[C@@H]1CN(C)C(=O)Nc1ccc(C(F)(F)F)cc1 | inactive: 1.01
30 | COCC(=O)Nc1ccc2c(c1)OC[C@H](C)N(Cc1ccccc1OC)C[C@@H](C)[C@H](OC)CN(C)C2=O | inactive: 0.984
31 | C[C@@H]1CCCCO[C@H](CN(C)C(=O)CCCN(C)C)[C@H](C)CN([C@@H](C)CO)C(=O)c2cc(NS(=O)(=O)c3cn(C)cn3)ccc2O1 | inactive: 0.982
32 | Cc1ccc(S(=O)(=O)Nc2ccc3c(c2)C(=O)N([C@@H](C)CO)C[C@@H](C)[C@@H](CN(C)Cc2ccc(C(=O)O)cc2)OCCCC[C@@H](C)O3)cc1 | inactive: 0.97
33 | C[C@@H]1CCCCO[C@H](CN(C)C(=O)Nc2ccc(F)cc2)[C@H](C)CN([C@@H](C)CO)C(=O)c2cc(NS(=O)(=O)c3ccccc3)ccc2O1 | inactive: 1.05
34 | C[C@@H]1CN([C@H](C)CO)C(=O)c2cccc(NC(=O)Nc3cccc4ccccc34)c2O[C@H]1CN(C)C(=O)Nc1ccc2c(c1)OCO2 | inactive: 1.02
35 | CCCC(=O)Nc1ccc2c(c1)C(=O)N(C)C[C@H](OC)[C@H](C)CN(S(=O)(=O)c1cn(C)cn1)[C@@H](C)CO2 | inactive: 0.985
36 | Cc1ccc(S(=O)(=O)Nc2cccc3c2O[C@H](CN(C)S(=O)(=O)c2ccc(F)cc2)[C@@H](C)CN([C@H](C)CO)C3=O)cc1 | inactive: 1.03
37 | CN1CCN(S(=O)(=O)c2ccc(CN)cc2)CC1 | inactive: 1.05
38 | CO[C@@H]1CN(C)C(=O)c2ccc(NS(=O)(=O)c3cn(C)cn3)cc2OC[C@H](C)N(CCC(F)(F)F)C[C@H]1C | inactive: 1.05
39 | COc1ccc2c3c([nH]c2c1)[C@H](CO)N(C[C@]13CN(CCc2ccccc2)C1)C(=O)CN1CCOCC1 | inactive: 0.958
40 | COc1ccc(NC(=O)Nc2ccc3c(c2)CC(=O)N([C@H](C)CO)C[C@H](C)[C@@H](CN(C)S(=O)(=O)c2cn(C)cn2)O3)cc1 | inactive: 1.01

Row | Structure (SMILES) | relative growth
41 | CN1CCN(C(=O)C[C@@H]2CC[C@@H]3[C@H](COC[C@H](O)CN3C(=O)C3CCCC3)O2)CC1 | inactive: 1
42 | COCC#Cc1ccc([C@@H]2[C@@H](CO)N3C(=O)CN(C(=O)CN4CCOCC4)C[C@H]23)cc1 | inactive: 1.02
43 | C[C@@H]1CCCCO[C@@H](CN(C)C(=O)NC2CCCCC2)[C@H](C)CN([C@@H](C)CO)C(=O)c2cc(NS(=O)(=O)c3ccc(Cl)cc3)ccc2O1 | inactive: 1.02
44 | CN1C(=O)c2cc(NC(=O)C3CCOCC3)ccc2OC[C@@H]2O[C@@H](CC(=O)NCCc3ccncc3)CC[C@@H]21 | inactive: 0.978
45 | Cc1ccc(S[C@]2(C(=O)O)CC(=O)N(Cc3ccccc3C(F)(F)F)[C@@H]2c2ccc(CO)cc2I)cc1 | inactive: 1
46 | CCOC(=O)c1ccc(O)cc1 | inactive: 0.954
47 | O=C(N[C@H]1CC[C@@H](CCNS(=O)(=O)c2ccc(F)cc2)O[C@H]1CO)C1CC1 | inactive: 1.01
48 | CO[C@@H]1CN(C)C(=O)c2ccc(NC(=O)c3ccccc3)cc2OC[C@@H](C)N(C(=O)CN(C)C)C[C@@H]1C | inactive: 1.01
49 | CCN(CC)C(=O)C(C#N)=Cc1cc(O)c(O)c([N+](=O)[O-])c1 | inactive: 1.1
50 | CO[C@@H]1CN(C)C(=O)c2ccc(NC(=O)C3CCOCC3)cc2OC[C@@H](C)N(CC2CCOCC2)C[C@H]1C | inactive: 1.02
51 | COc1ccccc1CN1C(=O)c2ccccc2[C@](Cc2ccccc2I)(C(=O)NCCCN(C)C)[C@@H]1c1ccc(CO)cc1 | inactive: 1
52 | COc1ccc(cc1)CN1C[C@]2(CN(C2)C(=O)Cc2ccncc2)c2c([nH]c3cc(ccc23)OC)[C@H]1CO | inactive: 1
53 | COc1ccccc1CNC(=O)C[C@H]1C[C@H]2c3cc(NS(=O)(=O)c4ccc(F)cc4)ccc3O[C@H]2[C@H](CO)O1 | inactive: 0.986
54 | COCCOC(=O)N1C(=O)[C@@]2(c3cc(C#Cc4ccc(OC)cc4)ccc31)[C@H](C(=O)N1CCCCCCC1)[C@H]1C(=O)O[C@H](c3ccccc3)[C@H](c3ccccc3)N1[C@@H]2c1ccc(O)cc1 | inactive: 1.09
55 | C[C@@H]1CCCCO[C@H](CN(C)S(=O)(=O)c2cn(C)cn2)[C@H](C)CN([C@@H](C)CO)C(=O)c2cc(NS(C)(=O)=O)ccc2O1 | inactive: 0.997
56 | C[C@H](CO)N1C[C@H](C)[C@@H](CN(C)Cc2ccc(Cl)c(Cl)c2)OCCCC[C@H](C)Oc2ccc(NC(=O)c3ccncc3)cc2C1=O | inactive: 1
57 | CN1CCN(C(=O)C[C@H]2CC[C@@H]3[C@H](COC[C@@H](O)CN3C(=O)Nc3ccc4c(c3)OCO4)O2)CC1 | inactive: 0.988
58 | COC(=O)C(CC#Cc1ccc2c(c1)[C@]1(C(=O)N2)[C@H](C(=O)N2CCc3cc(OC)c(OC)cc3C2)[C@H]2C(=O)O[C@H](c3ccccc3)[C@H](c3ccccc3)N2[C@@H]1c1ccc(OCCO)cc1)C(=O)OC | inactive: 1.1
